# PubChem BioAssay AID887 (National Center for Advancing Translational Sciences (NCATS), 2007)
# Among all 74,000 compounds or so, about 1,100 (1.5%) were called active. Inconclusive means that the source gave no clear call. Such entries were picked first, then a sample of the others. Calls come from the whole dose curve; as a rule, active = well fitted inhibition curve with a large enough effect; inconclusive = small, poorly fitted or top-dose-only effect; inactive = no such curve, though single readings can be large or run the other way. No potency is given beside an inconclusive call; the fits are too rough.
# Target: Polyunsaturated fatty acid lipoxygenase ALOX15 (Homo sapiens) (UniProt P16050)
# UniProt P16050, sequence (P16050 whole entry, looked up): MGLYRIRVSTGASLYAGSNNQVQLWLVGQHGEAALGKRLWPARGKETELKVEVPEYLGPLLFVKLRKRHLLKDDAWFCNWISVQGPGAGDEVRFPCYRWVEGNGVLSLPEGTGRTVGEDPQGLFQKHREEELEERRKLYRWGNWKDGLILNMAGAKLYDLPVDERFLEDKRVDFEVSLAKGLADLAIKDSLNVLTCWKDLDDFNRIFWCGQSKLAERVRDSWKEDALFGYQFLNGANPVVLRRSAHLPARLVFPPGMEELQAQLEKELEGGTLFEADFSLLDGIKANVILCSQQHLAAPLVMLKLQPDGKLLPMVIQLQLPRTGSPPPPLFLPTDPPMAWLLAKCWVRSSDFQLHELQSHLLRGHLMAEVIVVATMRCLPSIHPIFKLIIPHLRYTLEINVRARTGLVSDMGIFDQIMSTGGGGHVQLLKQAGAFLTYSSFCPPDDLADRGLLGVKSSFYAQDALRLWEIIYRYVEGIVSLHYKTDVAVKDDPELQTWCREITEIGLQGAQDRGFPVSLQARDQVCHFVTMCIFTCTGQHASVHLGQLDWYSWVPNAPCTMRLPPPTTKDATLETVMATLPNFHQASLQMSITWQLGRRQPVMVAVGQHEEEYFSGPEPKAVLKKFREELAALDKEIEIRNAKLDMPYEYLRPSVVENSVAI
# Experiment: qHTS Assay for Inhibitors of 15-hLO (15-human lipoxygenase); note: nearly all actives have a fitted effect of over 55% in size
# Details: purified 15hLO-1, xylenol orange hydroperoxide absorbance; activity change, negative = inhibition: at 57.1 µM (top of the series) unless noted
# Procedure, shortened: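 Readout: Fe(III)-xylenol orange absorbance, 573-to-405 nm ratio as reaction progress. Enzyme 40 nM purified human 15hLO-1, substrate 50 uM arachidonic acid, 6 min RT after 15 min compound preincubation; Hepes pH 7.5 buffer with Triton X-100.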
# % is set by controls: 0 for no effect and ±100 for the full control effect; potency is the fitted concentration of half-maximal effect; tags give direction and shape of the fitted curve.
Structure (SMILES),"activity change, negative = inhibition",Potency
COc1ccccc1N1CCN(Cc2cc(Br)c(O)c3ncccc23)CC1,inactive: 8.29%,–
CC1CCc2c(sc3nc(C4CC4)nc(SCC(=O)NCc4ccco4)c23)C1 (stereo unspecified),inactive: 12.9%,–
CCCCc1ccc(C2C(C#N)=C(N)SC(N)=C2C#N)s1,–,active: 0.794 µM
Cc1cc(C)cc(NS(=O)(=O)c2ccc3[nH]cc(C(=O)NCc4ccco4)c(=O)c3c2)c1,–,"inconclusive [inhibitor, partial curve]"
COc1ccc(Oc2ncc3nc(-c4ccc(OC)cc4)c(=O)n(C)c3n2)cc1,inactive: 3.22%,–
O=c1c(-c2ccccc2)nc2cnc(N3CCNCC3)nc2n1Cc1ccc(F)cc1,inactive: -3.59%,–
Cc1ccc(-c2cc(C(=O)NCCCn3ccnc3)c3cc(Br)ccc3n2)o1,–,"inconclusive [inhibitor, full curve, poor fit]"
NC(=S)c1ccc[n+]([C@@H]2O[C@@H](COP(=O)([O-])OP(=O)(O)OC[C@@H]3O[C@@H](n4cnc5c(N)ncnc54)[C@@H](OP(=O)(O)O)[C@H]3O)[C@@H](O)[C@H]2O)c1,–,"inconclusive [inhibitor, single point]"
COc1cc(OC)cc(C(=O)N(Cc2cc3cc(C)ccc3[nH]c2=O)C(C)C)c1,inactive: -23.4%,–
O=C(NCCCN1CCOCC1)c1cc(-c2ccc3c(c2)OCO3)nc2ccccc12,–,"inconclusive [inhibitor, partial curve]"
CCn1c(=S)sc2nc(C)sc21,–,"inconclusive [inhibitor, single point]"
C[C@H](Br)C(=O)c1ccc2cc(Br)c3ccccc3c2c1,inactive: -0.123% [at 11.4 µM],–
Cc1ccc([C@@H]2C3COCC=C3C(C#N)=C(N)C2(C#N)C#N)o1 (stereo partly specified),–,"inconclusive [inhibitor, partial curve]"
CCn1nnnc1NCc1ccc(N2CCCC2)cc1,–,"inconclusive [inhibitor, single point]"
Cc1nc2sc3c(c2c2nnc(SCC(=O)NCc4ccco4)n12)CCCC3,–,"inconclusive [inhibitor, partial curve]"
Cc1cc(C(=O)CSc2nnc(C3COc4ccccc4O3)n2C)c(C)n1-c1ccc(F)cc1 (stereo unspecified),–,"inconclusive [inhibitor, partial curve]"
COc1ccc(-c2cc(-c3cccs3)c(C#N)c(SCC(=O)NCc3ccco3)n2)cc1,–,"inconclusive [inhibitor, full curve, poor fit]"
Cn1c(=O)c(C(=O)CN2CCCc3ccccc32)c(N)n(Cc2ccccc2)c1=O,–,"inconclusive [inhibitor, partial curve]"
Cc1cc(C)nc(Nc2nc(=O)c3ccccc3s2)n1,–,active: 7.94 µM
O=C(Oc1ccc2c(c1)OCO2)c1cc2c(s1)CCC2,–,active: 20 µM
CC(C)CCOC(=O)/C=C/c1ccccc1,inactive: 1.3%,–
N#Cc1c(NC(=O)CSc2ncnc3sccc23)oc(-c2ccco2)c1-c1ccco1,–,"inconclusive [inhibitor, single point]"
CCSc1nc2c(c(=O)n1Cc1ccccc1)SC(C)C2 (stereo unspecified),–,"inconclusive [inhibitor, single point]"
Cc1ccc(CNC(=O)c2ccc(Br)o2)cc1,inactive: 4.99%,–

Structure (SMILES),"activity change, negative = inhibition",Potency
Nc1cc(N)c(OCC(F)(F)F)cc1OCC(F)(F)F,–,"inconclusive [inhibitor, partial curve]"
CCCCCCCCCCCCCCCCCC(=O)O,–,"inconclusive [inhibitor, single point]"
Cc1ccc(-c2nnc3n2N=C(c2ccccc2)CS3)cc1,inactive: 3.01%,–
O=c1[nH]c2cc3c(cc2cc1CN(Cc1nnnn1CC1CCCO1)C1CCCC1)OCO3 (stereo unspecified),–,"inconclusive [inhibitor, single point]"
CN(C)c1nc(-c2ccc3c(c2)OCO3)nc2ccccc12,–,"inconclusive [inhibitor, partial curve]"
CCOC(=O)N1CCN(C(=O)c2ccc(CS(=O)(=O)c3ccccc3OC)o2)CC1,inactive: 0.491%,–
COc1cc(C2C(C#N)=C(N)Oc3cc(N(C)C)ccc32)cc2c1OCO2 (stereo unspecified),–,active: 25.1 µM
N[C@H]1[C@@H](C(=O)O)[C@H]2C=C[C@H]1C2,inactive: 1.27% [at 11.4 µM],–
CCCCC(=O)NC1=NC(=O)C(C)(C)S1,inactive: -0.0691%,–
CNc1ncncc1-c1c(C)noc1C,–,"inconclusive [inhibitor, single point]"
CCOC(=O)C(C)Oc1ccc(C2NC(=O)NC(C)=C2C(=O)Nc2ccccc2C)cc1 (stereo unspecified),–,"inconclusive [inhibitor, single point]"
CCOc1ccc2nc(NC(=O)c3ccc(S(=O)(=O)N4CCOCC4)cc3)sc2c1,–,"inconclusive [inhibitor, partial curve]"
COc1cccc(-c2cncnc2Nc2ccc(F)cc2)c1,–,"inconclusive [inhibitor, partial curve]"
COc1ccc2nc(NC(=O)c3cccc(OCc4c(C)noc4C)c3)sc2c1,–,"inconclusive [inhibitor, single point]"
CCN(CC)CCNc1nc2c(c(=O)[nH]c(=O)n2C)n1CC(O)COc1ccc(Cl)cc1Cl (stereo unspecified),–,"inconclusive [inhibitor, partial curve]"
CCCCOc1cccc(C(=O)Nc2ccc(N3CCN(CC)CC3)cc2)c1,inactive: -8.02%,–
O=c1cc(-c2cc(O)c(O)c(O)c2)oc2cc(O)cc(O)c12,–,active: 2.51 µM
CN(C)c1ccc2c(c1)OC(N)=C(C#N)C2c1cccc(F)c1 (stereo unspecified),–,active: 12.6 µM
CCCC[P+](CCCC)(CCCC)Cc1ccc(NC(=O)[C@@H](Cc2ccc3ccccc3c2)NC(=NC2CCCCC2)NC2CCCCC2)cc1,–,"inconclusive [inhibitor, single point]"
CCOC(=O)c1c(NC(=O)c2nn(CC)cc2Br)sc(C)c1C,inactive: -24.6%,–
Cc1noc(C)c1-c1cncnc1Nc1ccccc1,–,"inconclusive [inhibitor, partial curve]"
CCOc1cc(-c2c(C#N)c(N)nc3c2CCCC3C)ccc1O (stereo unspecified),–,"inconclusive [inhibitor, partial curve]"
C1=C(CCNC2=NCCCCC2)CCCC1,–,"inconclusive [inhibitor, partial curve]"
CCOC(=O)c1cc(C)[nH]c(=S)c1C#N,–,active: 3.98 µM

Structure (SMILES),"activity change, negative = inhibition",Potency
Cn1cc(C(=O)OCC2CCN(CCNS(C)(=O)=O)CC2)c2ccccc21,–,"inconclusive [inhibitor, single point]"
CNc1cc(-c2ccccc2C)ncn1,–,"inconclusive [inhibitor, partial curve]"
Cc1noc(C)c1-c1nc(NCCN2CCOCC2)c2ccccc2n1,–,"inconclusive [inhibitor, partial curve]"
O=C(OCC(=O)N1CCc2ccccc21)c1ccccc1,inactive: 7.16%,–
N#CCCn1c(=O)c(-c2cc(F)cc(F)c2)nc2cnc(Oc3cccc(Cl)c3)nc21,inactive: 2.74%,–
CCC(C)N(C(=O)COC(=O)c1[nH]c(C)c(C(C)=O)c1C)C1CCS(=O)(=O)C1 (stereo unspecified),–,"inconclusive [inhibitor, single point]"
CCCC1c2ccc(C)n2CCN1C(=O)Nc1ccc(F)cc1 (stereo unspecified),–,"inconclusive [inhibitor, single point]"
CC(C)(C)c1cc(C(=O)/C=C/c2ccc(C(=O)O)cc2)cc(C(C)(C)C)c1,–,"inconclusive [inhibitor, single point]"
Cc1nn(-c2ccccc2)c2sc(-c3n[nH]c(=S)o3)cc12,–,"inconclusive [inhibitor, partial curve]"
COc1nc(Nc2cccc(C)c2)nc(N2CCCCC2)n1,–,active: 3.98 µM
O=C(C1CCCCC1)N1CCCC(c2nc3c(nnn3Cc3ccccc3)c(=O)[nH]2)C1 (stereo unspecified),–,active: 15.8 µM
C[C@@H]1CC[C@@H]2C(=O)N3[C@@H](CC[C@@H](C)[C@@H]3c3ccc(-c4ccco4)cc3)C(=O)N2[C@H]1c1ccc(-c2ccco2)cc1,inactive: -12.7% [at 11.4 µM],–
COc1cc2c(cc1OC)C1C(=O)c3ccc4c(c3OC1CO2)C=CC(C)(C)O4 (stereo unspecified),inactive: 0.496%,–
N#CCCn1c(=O)c(-c2cc(F)cc(F)c2)nc2cnc(N3CCOCC3)nc21,inactive: -11.1%,–
CC(C)N(Cc1nc(-c2ccc(Cl)cc2)no1)C(=O)CCC1CCCC1,–,"inconclusive [inhibitor, partial curve]"
Cc1nnc(NC(=O)c2cccc(F)c2)s1,–,"inconclusive [inhibitor, single point]"
CCOC(=O)c1ccc2c(c1)C1C=CCC1C(C(=O)O)N2 (stereo unspecified),–,"inconclusive [inhibitor, partial curve]"
COc1ccc2cc(C(c3nnnn3Cc3ccccc3)N3CCCCCC3)c(=O)[nH]c2c1 (stereo unspecified),–,"inconclusive [inhibitor, full curve, poor fit]"
COCCNC(=O)C(c1ccccc1)N(Cc1cccs1)C(=O)Cn1nnc2ccccc21 (stereo unspecified),–,"inconclusive [inhibitor, single point]"
Cc1ccc(C2C=C(c3ccccc3OC(F)F)Nc3ncnn32)cc1 (stereo unspecified),–,"inconclusive [inhibitor, single point]"
CCOC(=O)c1c(CN(CC)CC)oc2cc(Br)c(O)cc12,–,"inconclusive [inhibitor, partial curve]"
CCOC(=O)c1cc2c3ccccc3n(CC)c2nc1N,–,"inconclusive [inhibitor, partial curve]"
O=C(COc1ccc(Cl)cc1Cl)Nc1noc2ccccc12,–,"inconclusive [inhibitor, full curve, poor fit]"
